Reference: article PMC4336329 (PLoS ONE, 2015)
Screen size: about 310,000 compounds; about 14,000 (4.5%) showed an effect of 50% or more. The effect is printed as a negative number. This is one part of the list.

The compounds below were run against human ether-à-go-go-related gene (hERG) potassium channel (human, UniProt Q12809) (assay: primary screen, population patch clamp on CHO cells stably expressing hERG).
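Also: peak tail current of the secondary pulse compared with the same well before compound.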

Chain of human ether-à-go-go-related gene (hERG) potassium channel (Q12809 whole entry, looked up): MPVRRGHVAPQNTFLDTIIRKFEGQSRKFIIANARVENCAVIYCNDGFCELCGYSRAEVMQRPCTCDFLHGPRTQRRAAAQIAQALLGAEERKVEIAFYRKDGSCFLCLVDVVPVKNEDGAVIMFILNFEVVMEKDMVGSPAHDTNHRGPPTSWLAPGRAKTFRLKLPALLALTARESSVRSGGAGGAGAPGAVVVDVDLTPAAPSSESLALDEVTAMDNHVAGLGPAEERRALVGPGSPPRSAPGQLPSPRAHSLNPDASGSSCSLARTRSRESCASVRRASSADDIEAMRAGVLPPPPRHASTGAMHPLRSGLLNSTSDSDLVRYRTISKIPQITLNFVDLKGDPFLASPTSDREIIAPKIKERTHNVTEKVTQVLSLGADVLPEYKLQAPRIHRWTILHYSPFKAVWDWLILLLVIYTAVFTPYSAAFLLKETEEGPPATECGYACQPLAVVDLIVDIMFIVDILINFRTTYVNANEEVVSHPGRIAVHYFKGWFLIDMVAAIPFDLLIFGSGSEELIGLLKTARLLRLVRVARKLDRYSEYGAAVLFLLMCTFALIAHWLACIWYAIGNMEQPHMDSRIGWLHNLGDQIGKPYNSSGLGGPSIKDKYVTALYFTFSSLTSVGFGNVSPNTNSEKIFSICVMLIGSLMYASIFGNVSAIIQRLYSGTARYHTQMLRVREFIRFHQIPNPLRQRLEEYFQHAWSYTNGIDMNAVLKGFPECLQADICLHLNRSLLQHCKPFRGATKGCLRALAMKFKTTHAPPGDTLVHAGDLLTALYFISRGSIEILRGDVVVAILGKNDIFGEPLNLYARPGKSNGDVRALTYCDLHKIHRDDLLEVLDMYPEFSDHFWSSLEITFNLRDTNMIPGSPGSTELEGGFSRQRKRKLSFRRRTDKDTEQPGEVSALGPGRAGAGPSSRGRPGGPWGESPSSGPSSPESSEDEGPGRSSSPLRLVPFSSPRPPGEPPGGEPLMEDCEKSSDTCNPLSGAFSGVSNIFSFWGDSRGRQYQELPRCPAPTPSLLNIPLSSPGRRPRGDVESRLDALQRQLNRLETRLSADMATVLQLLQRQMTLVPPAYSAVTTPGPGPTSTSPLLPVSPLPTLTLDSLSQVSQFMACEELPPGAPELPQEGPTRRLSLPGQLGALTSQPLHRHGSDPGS

SMILES	hERG current change (%, negative = inhibition) at 10uM [%]
CCOC(=O)Cc1csc(NC(=O)c2ccc3ncsc3c2)n1	-1.68
COc1ccc(CCN(Cc2ccc(C(C)C)cc2)S(=O)(=O)c2ccc(S(=O)(=O)N(C)C)cc2)cc1OC	-11.1
COC(=O)NC(NC(=S)Nc1ccccc1OC)C(Cl)(Cl)Cl (stereo not drawn)	4.28
O=C(NNC(=O)C1CCCC1)c1cc([N+](=O)[O-])cc([N+](=O)[O-])c1	18.1
C[N+]1(CC(=O)OCCCC2CCCCC2)CCCC1.[I-]	-8.31
COc1ccc(C(O)(CC(C)C)C(CN2CCOCC2)c2ccccc2)cc1.Cl (stereo not drawn)	-17.7
COc1ccc(CC(=O)N(Cc2ccccc2)C(C)C)cc1	-0.0847
Cc1ccc(OCC(=O)Nc2ccc(Cl)cc2)c(-n2nc3ccccc3n2)c1	17.2
CCN1CCn2c3c(c4cc(C)ccc42)CCCC31 (stereo not drawn)	-54.2
O=c1/c(=C/c2ccccn2)sc2n1CN(c1ccccc1)CN=2	-1.38
Cn1c(-c2ccc3c(c2)OCO3)cnc1NCc1cccc(O)c1.O=C(O)C(=O)O	-23.1
CC(C)c1cccc(C(C)C)c1NC(=O)c1ccc(OCC(=O)NCc2ccccc2)cc1	-6.29
O=C(COC(=O)c1ccco1)NC1CCCCC1	16.6
COc1ccc(CNC(=O)C2CCN(S(=O)(=O)c3cccnc3)CC2)cc1	12.9
CC1CN(C(=O)COC(=O)c2ccc(Cl)c(N)c2)CC(C)O1 (stereo not drawn)	-3.05
NC(=O)c1c(N)sc2c1CCCC2	-12.3
O=C(O)CCC(=O)N1CCc2cc(S(=O)(=O)Nc3ccc4c(c3)OCCO4)ccc21	9.35
CCOC(=O)C1CCCN(c2nc3ccccc3nc2C(C#N)C(=O)OCCOC)C1 (stereo not drawn)	-66
CN(C)c1cccc(C(=O)Nc2nnc(Cc3ccccc3)s2)c1	0.344
CC(=O)c1sc(N/N=C\c2cccc(Br)c2)nc1C	13.2
O=C(COc1nncc2ccccc12)Nc1ccc(F)c(F)c1	31

SMILES	hERG current change (%, negative = inhibition) at 10uM [%]
CCOC(=O)c1sc(/N=C/c2ccc(O)cc2O)cc1C	39.8
COc1ccc(Br)cc1/C=N/NC(=O)CNC(=O)/C=C/c1ccccc1	14.1
CCn1c(O)c(C(c2ccccn2)c2c(O)n(CC)c(=S)[nH]c2=O)c(=O)[nH]c1=S	13.1
COC(=O)c1cn(C(=O)c2ccc(C)cc2C)c2ccccc12	12
CCOC(=O)Cc1cc(=O)n2[nH]c(C)c(C#N)c2n1	7.91
Cc1cc(C)cc(NC(=O)Oc2ccccc2N2CCCCC2)c1	11.2
CCc1nc2sc3ccccc3c(=O)c2c(=O)n1CCOC	-16.8
COc1ccccc1N1C(=O)C2C(C(=O)c3ccccc3)=NN(c3ccc(Br)cc3)C2C1=O (stereo not drawn)	7.78
Cn1ccc(NC(=O)c2ccc([N+](=O)[O-])cc2)n1	2.12
CCCCN(CC)C(=O)Cn1ncc2c1-c1cc(C)ccc1OC2	-19.7
COc1ccccc1CNC(=O)c1ccc2c(c1)OCO2	1.64
Cc1ccc(-n2cc(C(=O)c3ccccc3O)cn2)cc1	19.8
Cc1ccc(C(=O)NCCc2ccc(S(N)(=O)=O)cc2)cc1[N+](=O)[O-]	-3.81
CC(=C\c1ccco1)/C=C1/SC(=S)N(CC(=O)O)C1=O	11.9
Cc1cc(C)c(Nc2ncccc2C(=O)O)c(C)c1	12.6
CCS(=O)(=O)N1CCC(C(=O)NCCN2CCN(Cc3ccccc3)CC2)CC1	2.07
COc1cc(C(=O)NNC(=S)NC(=O)c2ccc3c(c2)OCO3)cc(OC)c1OC	4.12
Cc1ccc(NC(=O)CSc2ccc3nnc(CCNC(=O)c4ccccc4)n3n2)c(C)c1	-18
CC1CCCC(C)N1C(=O)COC(=O)C(Cc1ccccc1)NC(=O)c1cccs1 (stereo not drawn)	0.924
CCOc1ccc(C(=O)Nc2ccc3nc(N4CCN(CC)CC4)cc(C)c3c2)cc1	-23
OCC1(Cc2ccc(Cl)cc2)CCN(Cc2ccc3nsnc3c2)CC1	-61.5
